In the supplement of paper PMC3334620:
Over roughly 33,000 sequences, “E-score (-0.5 to 0.5)” has its median near -0.035; the highest 2% begin near 0.34. This is one part of the list.

Molecular target: T1, Mot3 (UniProt P54785)
T1 sequence: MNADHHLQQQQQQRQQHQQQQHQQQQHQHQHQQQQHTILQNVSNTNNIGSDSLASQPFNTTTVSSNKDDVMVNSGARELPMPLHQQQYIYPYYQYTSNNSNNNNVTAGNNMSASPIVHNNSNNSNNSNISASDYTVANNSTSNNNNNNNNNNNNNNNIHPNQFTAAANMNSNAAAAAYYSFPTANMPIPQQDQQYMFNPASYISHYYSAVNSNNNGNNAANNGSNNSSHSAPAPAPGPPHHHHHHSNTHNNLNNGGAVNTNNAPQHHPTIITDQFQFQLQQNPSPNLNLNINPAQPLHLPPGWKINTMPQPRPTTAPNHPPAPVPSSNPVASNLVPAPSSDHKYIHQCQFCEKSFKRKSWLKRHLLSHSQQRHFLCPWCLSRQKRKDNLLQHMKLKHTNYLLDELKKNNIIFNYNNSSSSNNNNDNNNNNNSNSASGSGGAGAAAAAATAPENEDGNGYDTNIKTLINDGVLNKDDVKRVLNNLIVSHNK
Experiment: PBM E-score (8-mer binding enrichment) (E-score (-0.5 to 0.5)); higher = stronger / more preferred TF binding; most listed sequences are background and not binding sites
Conditions: protein concentration: 200 nM; construct: GST-full length
Method in brief: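 Detection of bound protein used fluorescent anti-GST, with scans normalised by masliner. The proteins were GST-tagged yeast transcription factors applied at about 100-200 nM to universal all-10-mer Agilent arrays made double-stranded by primer extension. Each ungapped eight-base word, pooled with its reverse complement, was scored with an E-score from the Universal PBM Analysis Suite.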

Sequence	PBM E-score
GTATGGAC	-0.146
ACGAGATA	0.0538
GAAAATCC	0.0103
AAGGACCC	-0.263
AAGACCCT	-0.102
AACAATGC	0.203
CAGAGGCC	-0.341
CACTGCGG	-0.0924
TCTCCACA	-0.0924
GAGAGGAC	0.0385
CCTCAGCA	-0.156
CGAACTCG	-0.133
AGGCGATG	-0.111
ACTCGCAG	-0.141
GAACTGTC	0.0464
TTATAAAA	0.209
CCGTAATC	-0.0904
CACTTGGC	-0.0541
AACTCCCC	-0.148
TCTACTCA	0.178
CCTATTCA	0.0778
CCTTAGAG	-0.308
CCGTCGTA	-0.0137
CTAGGAAG	-0.108
TCCTGTCA	0.165

Sequence	PBM E-score
AAGTACAT	0.265
GGAATGAA	-0.0882
TCAGTAGA	-0.119
ACTGCCCC	-0.227
AAGTTCGC	0.0983
GTCTATTA	-0.123
CTTTAGAC	0.217
AATTCCCC	-0.133
CGTGGTTC	-0.169
CACCCGTG	0.0481
GGTGCGAC	-0.251
CAATCTAC	0.0957
CGTCTAAA	0.0459
CCGGCATA	-0.298
CTGAGTAC	0.0463
GCTCGGCA	-0.204
ATAAATAG	0.059
CTGCAGAC	-0.0439
GCATTATA	0.143
AGGCCTAG	-0.194
AACCCTAT	0.0725
AGTTCAAA	-0.0249
CAGAATAA	0.0126
GCTCAATA	-0.0871
CCAGATAC	-0.291

Sequence	PBM E-score
AGACAAGA	-0.00598
TAACACAA	0.332
CGGTAGAC	-0.19
AATTGCGA	-0.14
AACGTCCT	-0.0572
AATATCAA	0.0558
AGCTTGGA	-0.278
ACAGGTCC	-0.0406
TCCTTCGA	0.0219
ATAAGGTA	0.092
GAAAGTTC	-0.263
GATCGAAA	-0.0242
AAGAGTTC	-0.188
GAAGATTC	-0.0499
CTTTCGCC	-0.0757
GAACACTC	0.00214
ACAACGCT	0.0615
AGTAGGTA	0.219
CCGCCTAA	-0.175
GCTGCCGA	-0.0685
GTACTCTA	0.0985
ATTAGGAA	0.283
AACGTTAA	0.231
AGCGGACT	-0.22
CGGCTAAC	-0.0778

Sequence	PBM E-score
GATTTCCC	-0.104
GGATCAAC	0.106
CAATGTAC	0.184
ATACTAGC	0.0471
GATGACTA	-0.116
CTCGAGCC	-0.0279
AAGAACGC	0.0817
ATTGGTTG	-0.0796
CTGTAATA	0.238
ATAAAAAT	0.0522
CCCGGGGA	-0.186
AGATCTTC	-0.0165
ATTGCTGA	-0.0702
GATAGAAC	-0.0824
ATCCGGAC	-0.158
CCGGCCAG	-0.0827
CCCCATTA	0.00735
ATTTACAC	0.412
GAATGTAC	0.028
AAGCTGCC	-0.154
AATCCTCA	-0.12
CAAAACTA	0.156
GACGCACC	-0.124
GGATCGAA	-0.0248
AAATAGCG	0.11

Sequence	PBM E-score
CAACCGTA	-0.0166
CGCTATCA	-0.0807
ATAATATG	0.121
CCCCTGTC	-0.106
CCGTTTTC	0.0612
AACTCCCA	-0.309
ACACCTTG	0.193
AGGCCTAA	-0.187
GATCCCTA	0.0167
GTCGGTGA	-0.212
CACGAAAA	0.166
ACCTTGTA	0.338
CGCCTGCC	0.0805
GCTACCGA	-0.174
AAGTCCGC	-0.133
CTCCGCTA	-0.134
ACAGAACG	-0.0813
AGGTCCGG	-0.117
CCGAGAAC	-0.0817
ACGCTGCA	-0.135
AACCTCTT	0.165
AACGCTAC	-0.0449
GCAAATCA	0.0867
ATATCGTC	0.0109
AAGCTCAT	-0.164

Sequence	PBM E-score
CCTCACCC	-0.147
GCTCTCAC	-0.23
AGGATCCA	-0.116
TGGACAAA	-0.103
CGTTGCAC	0.00668
GATATCAC	0.00517
CCGTTTCG	-0.138
CGCACCGA	-0.27
ACAGTTCG	0.0369
AATTCGAC	-0.0126
CCACTGAC	-0.281
GACTAGTA	-0.0381
ACTATTTC	0.0153
ACCCCCCG	-0.242
AATCAGAA	0.0332
AATTTGAG	-0.0957
ATCTCCAT	-0.039
GGACTGAC	-0.19
ATTTATTA	0.137
TTTGAAAA	0.276
ACAAGCTC	-0.0244
CGAAGGAC	-0.03
GGCCAGCC	-0.194
CACTGTCG	-0.122
CGAGGCGC	-0.207

Sequence	PBM E-score
AACACCGG	-0.0422
AACCGGGG	-0.236
AGGGGTAA	-0.0463
AGTGAGCA	-0.0508
ATCGAGAG	-0.0709
CGACGCGC	0.124
CGAACCGC	-0.0972
TATCATAA	0.0167
GACGCGCA	-0.196
AATGACGC	0.119
ACCCTACC	-0.188
TACGATGA	0.107
AGAGCGTA	-0.0554
CTTGTGCA	0.176
CCTGTAGC	0.192
GCCTTAAC	0.269
CTCTGGGC	-0.0902
ACGTAAAG	0.243
AAACGACA	0.221
CCTCTGCG	-0.188
AGTATTGA	0.0762
TGTGAAAA	0.18
